Laboratory results from the supplement of paper PMC3334620.
Over roughly 33,000 sequences, “E-score (-0.5 to 0.5)” has its median near -0.035; the highest 2% begin near 0.35. Some of the results follow.

What follows are sequences tested against T1, Pdr3 (UniProt P33200) (assay: PBM E-score (8-mer binding enrichment) (E-score (-0.5 to 0.5)); higher = stronger / more preferred TF binding; most listed sequences are background and not binding sites). Details: protein concentration: 200 nM; construct: GST-full length.
T1 sequence: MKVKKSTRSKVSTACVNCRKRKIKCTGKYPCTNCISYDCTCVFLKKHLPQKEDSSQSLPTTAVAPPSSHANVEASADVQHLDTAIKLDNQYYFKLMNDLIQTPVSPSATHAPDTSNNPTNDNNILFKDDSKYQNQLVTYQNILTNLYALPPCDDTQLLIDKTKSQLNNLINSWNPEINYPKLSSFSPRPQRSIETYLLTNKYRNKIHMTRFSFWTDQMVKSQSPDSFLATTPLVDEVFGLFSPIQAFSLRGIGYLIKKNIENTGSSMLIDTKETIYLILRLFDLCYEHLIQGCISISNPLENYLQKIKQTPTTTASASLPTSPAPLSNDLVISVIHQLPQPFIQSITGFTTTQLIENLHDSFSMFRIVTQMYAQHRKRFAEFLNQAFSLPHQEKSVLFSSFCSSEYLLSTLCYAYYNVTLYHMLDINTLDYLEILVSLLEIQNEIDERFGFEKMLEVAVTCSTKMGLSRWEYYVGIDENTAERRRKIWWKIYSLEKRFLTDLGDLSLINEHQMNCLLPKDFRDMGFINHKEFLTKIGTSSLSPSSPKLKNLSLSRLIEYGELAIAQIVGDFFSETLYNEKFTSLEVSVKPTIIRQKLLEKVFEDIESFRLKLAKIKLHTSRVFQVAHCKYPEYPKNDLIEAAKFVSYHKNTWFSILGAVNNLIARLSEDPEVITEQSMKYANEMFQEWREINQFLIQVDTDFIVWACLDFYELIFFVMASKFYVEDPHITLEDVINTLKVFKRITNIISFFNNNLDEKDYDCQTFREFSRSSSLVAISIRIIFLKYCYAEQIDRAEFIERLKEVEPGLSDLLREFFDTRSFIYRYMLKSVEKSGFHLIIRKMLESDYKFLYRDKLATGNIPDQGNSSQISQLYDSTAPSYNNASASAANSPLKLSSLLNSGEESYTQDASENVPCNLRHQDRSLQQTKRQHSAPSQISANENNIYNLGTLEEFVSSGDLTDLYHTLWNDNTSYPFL
Summary of the method: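 Masliner-normalised scans of fluorescent anti-GST signal were the basis for scoring. That signal came from GST-tagged yeast transcription factors applied at about 100-200 nM to double-stranded universal all-10-mer Agilent arrays on fresh or once-stripped slides. Each ungapped eight-base word, pooled with its reverse complement, received an E-score from the Universal PBM Analysis Suite.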

| Sequence | PBM E-score |
| --- | --- |
| CGGTGCAA | 0.0185 |
| TGCCGCAA | 0.0272 |
| CTCACCAG | -0.147 |
| ACCAAGTC | -0.00114 |
| CCCCGACA | 0.0765 |
| AATTCCGT | 0.449 |
| CAATTCAC | 0.0212 |
| TGAGCACA | -0.0994 |
| ACGTACCT | -0.31 |
| CCTCACGC | 0.0488 |
| ACGCATGA | -0.0808 |
| CTCAGCTA | -0.217 |
| AGAAACTA | -0.168 |
| TATGAGAA | -0.08 |
| AGGAACAT | -0.186 |
| TACAAAAA | -0.149 |
| AACATTAG | -0.286 |
| CGGGCCGC | 0.146 |
| AGCAGGCG | -0.00937 |
| GACGTTGA | -0.0736 |
| GCACAGGC | 0.00512 |
| CAGACGGC | 0.0381 |
| ATAAGACG | -0.156 |
| ACCGCGCG | 0.397 |
| TATCCTGA | -0.107 |

| Sequence | PBM E-score |
| --- | --- |
| ATTACCAG | -0.0103 |
| ACATCTCA | -0.0808 |
| TTCTAGAA | -0.0933 |
| ACAACTGG | -0.00479 |
| ACGGGTCC | 0.186 |
| CGTCACAC | -0.0834 |
| CCCTCCAC | -0.139 |
| CAGCAGGG | -0.135 |
| GATATCCA | -0.00988 |
| ATCAAAAA | 0.0164 |
| CGTGACTC | -0.279 |
| GCCTTATA | 0.0222 |
| AATGATCT | -0.15 |
| CGGATGGA | 0.256 |
| ACAACTCG | 0.0266 |
| ATCGAACC | 0.108 |
| ACAGTACC | -0.129 |
| CCAAAAGC | -0.0476 |
| CAGGCATC | -0.0951 |
| AGCATACC | -0.0406 |
| AGGATTAT | -0.184 |
| CACAGTCA | -0.126 |
| ACGTACCC | 0.0101 |
| CGTTTCAG | 0.126 |
| AGCATGAG | -0.163 |

| Sequence | PBM E-score |
| --- | --- |
| CATTTACC | -0.0378 |
| CGTCAAAG | -0.139 |
| CCTTATAA | 0.0389 |
| TCAGCGGA | 0.335 |
| GTGTGGGA | -0.00678 |
| CATTCATC | -0.0626 |
| CGAAAACG | -0.0052 |
| AATATGTG | 0.121 |
| GGCTGATA | 0.189 |
| AGGAGCGC | -0.0646 |
| ACGAGCGG | 0.107 |
| GTACGGAC | 0.278 |
| GAATTACC | -0.065 |
| GGCTGCCC | 0.092 |
| ATCGTGGC | -0.147 |
| GGGGATTA | 0.162 |
| TGCAAAAA | -0.202 |
| ATTTCTCG | 0.216 |
| CCGGTTGA | 0.29 |
| CGAGTATC | 0.0267 |
| GCGCCAGC | -0.186 |
| ACAGGGGG | -0.284 |
| AAATGGAT | -0.161 |
| ATCCCGGA | 0.417 |
| CAACCAGC | -0.134 |

| Sequence | PBM E-score |
| --- | --- |
| AGGTGGAG | -0.25 |
| CGATGCGA | 0.0866 |
| GAAACAAA | 0.0961 |
| CTAGCTAG | -0.154 |
| AACCAGGT | -0.196 |
| ACTTTCGC | -0.182 |
| AGGGCCGC | 0.0126 |
| AACCGCGC | 0.231 |
| GAAGTTCA | 0.0399 |
| AATAGCAT | -0.00437 |
| AGCTCTGA | -0.191 |
| AGACGACC | -0.121 |
| AAAGAAAG | -0.18 |
| AGCGACCT | -0.059 |
| GCTAGTCC | -0.141 |
| AATTCTCA | -0.142 |
| CACCTGCC | 0.00218 |
| AGATGTAT | -0.117 |
| ACAGAATC | -0.102 |
| ACCTGGTG | 0.0787 |
| AAAGGAGT | -0.0436 |
| AATCGCGG | 0.233 |
| GGTCCAAC | 0.0264 |
| GACTGAAC | -0.113 |
| CGTCAGGA | -0.194 |

| Sequence | PBM E-score |
| --- | --- |
| GATGTACA | 0.00746 |
| TAACTCGA | -0.00617 |
| AACTTGTC | 0.0171 |
| CAGTAGCG | 0.0969 |
| CTAGGTAA | -0.143 |
| ACCGCTAG | -0.268 |
| AAACGAGG | -0.0533 |
| ACACGTGA | -0.0818 |
| TATATTAA | 0.169 |
| ACTGCGAC | -0.0554 |
| ACTGTTAA | -0.231 |
| CTCTAGAG | -0.195 |
| AACAGTAA | -0.0594 |
| AATCTGCG | 0.181 |
| ACTAGAGT | -0.252 |
| AAAAAGTA | -0.0952 |
| CCCTTTAC | -0.082 |
| ACAGCTCT | -0.212 |
| ATCGAGGC | -0.117 |
| ACGCCCGC | 0.162 |
| AACTTTCG | 0.032 |
| CAACGATG | -0.106 |
| GATGACAC | -0.00417 |
| AATGGATA | 0.026 |
| AGGAAAAG | 0.0387 |

| Sequence | PBM E-score |
| --- | --- |
| CCCTCTGA | -0.0519 |
| GTCTGTCA | -0.07 |
| CATCGTCA | -0.135 |
| GTGGGCCA | 0.0137 |
| GTTCAGCA | -0.196 |
| GTGCTGAA | -0.105 |
| GTCCCGAC | 0.255 |
| ACCGACGA | 0.0477 |
| ATATCGGC | 0.121 |
| CTATCCTC | -0.179 |
| TACCAGTA | -0.143 |
| GGAAGTAC | 0.265 |
| ACCGCGGT | 0.4 |
| CCCTTCCG | 0.392 |
| ATATATCC | 0.294 |
| AGGTAGAT | 0.0361 |
| CATTAGGA | -0.162 |
| GGGTGGAA | -0.0277 |
| GGTCGTAC | -0.0185 |
| GAAGACTC | -0.138 |
| TATTAAAA | 0.0638 |
| AAAAGATG | -0.15 |
| CAGAACCA | -0.211 |
| CCGAGATC | 0.286 |
| GATCGTAA | -0.187 |

| Sequence | PBM E-score |
| --- | --- |
| AACGCGAT | 0.118 |
| ATTAGAAT | -0.00778 |
| CGCCAGAG | -0.0366 |
| CTGCAAAA | -0.109 |
| ACGCATTG | -0.184 |
| ATTACAGC | -0.104 |
| GACGTCGC | -0.233 |
| CATGGGCC | 0.107 |
| CCCAACTC | 0.16 |
| CAAGGTTC | -0.129 |
| AAAACCTT | -0.143 |
| GACAAGAA | 0.0834 |
| ATGACGCG | 0.0815 |
| CTCACTTA | -0.0807 |
| CGCCCTAG | -0.0483 |
| AACTGTCC | 0.138 |
| CACGTGGA | -0.0333 |
| CTCGTAAA | -0.0445 |
| CATGTTTC | -0.0125 |
| TGATTGAA | 0.0579 |
| ATTTATCA | 0.116 |
| AGGCCCGA | -0.0363 |
